In the supplement of paper PMC4166925:
± gives the standard deviation of the averaged measurements. The full ranking holds about 33,000 sequences; the median of “E-score (dimensionless, -0.5 to 0.5)” is about -0.049, and the highest 2% start at about 0.37. The list shows a part of the results.

Each sequence was assayed on T1, PmTbr T-box DNA-binding domain (GST fusion) (assay: PBM E-score of 8-mer (E-score (dimensionless, -0.5 to 0.5)); Tbr is Tbrain of the sea star Patiria miniata (Pm) or the sea urchin Strongylocentrotus purpuratus (Sp); higher = stronger binding preference; most listed sequences are background and not binding sites). Conditions: the construct has about 5 more residues each side.
T1 sequence: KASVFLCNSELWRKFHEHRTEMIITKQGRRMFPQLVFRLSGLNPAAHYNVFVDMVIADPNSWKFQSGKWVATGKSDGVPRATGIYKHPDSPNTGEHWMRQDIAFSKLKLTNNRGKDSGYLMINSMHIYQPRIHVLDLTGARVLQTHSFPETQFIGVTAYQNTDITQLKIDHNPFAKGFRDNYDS
Procedure, shortened: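 Expression of GST-fused Tbr T-box DNA-binding domains, each holding the full T-box plus roughly five flanking residues, was carried out in BL21 E. coli at 20 °C, with purification by glutathione affinity chromatography. Universal Agilent arrays made double-stranded by primer extension were incubated with the protein at 200 nM in PBS (pH 7.5), then scanned and quantified. All ungapped 8-mers were scored from probe intensities, and each received an enrichment E-score from the Universal PBM Analysis Suite, averaged over duplicate arrays.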

Sequence | PBM E-score of 8-mer
CTGGTAAA | -0.0095 ± 0.053
TCAATCGA | -0.104 ± 0.049
ATCCCAAA | -0.226 ± 0.015
AGAAACAG | -0.136 ± 0.075
CAGAGTGG | -0.211 ± 0.0088
AGACGCCT | 0.049 ± 0.019
GATTACCA | -0.168 ± 0.028
AAAGTAGT | -0.113 ± 0.039
CATTAGGG | -0.194 ± 0.027
ACGTAGTG | 0.037 ± 0.02
ACATCACA | 0.322 ± 0.024
AACTACTA | 0.0568 ± 0.043
GCGTCAGA | 0.182 ± 0.027
GCCGATTA | -0.0069 ± 0.053
CCAGGCCC | -0.287 ± 0.0065
ATTGCCCC | -0.1976 ± 0.0019
CCTACTAC | -0.0602 ± 0.0068
TAACTGGA | -0.194 ± 0.023
GCCGTGCA | -0.144 ± 0.035
GGCCTACC | -0.0189 ± 0.018
ATGAGTAC | -0.00545 ± 0.022
CCTAGGTC | 0.0715 ± 0.009

Sequence | PBM E-score of 8-mer
CCTCGTAC | -0.154 ± 0.07
AACTTTTA | -0.0469 ± 0.11
CTGTCAAG | 0.2006 ± 0.0012
GCTTTACC | -0.126 ± 0.066
CCTCAAAA | -0.147 ± 0.0033
CTGACAAG | 0.217 ± 0.011
GGAACCCC | -0.246 ± 0.031
CTAATATA | -0.229 ± 0.047
AAGACGCC | -0.0908 ± 0.029
AGGCCAGG | -0.202 ± 0.098
ATCAAAAG | -0.133 ± 0.097
CACCTGCA | 0.4 ± 0.0099
GTAGCCGA | -0.142 ± 0.028
ACCCTTTC | -0.198 ± 0.077
ACAGACGC | 0.0551 ± 0.00085
GAACGTGA | 0.135 ± 0.043
GCCTCGTA | -0.277 ± 0.052
CATGCTAA | 0.159 ± 0.055
GACGCTCC | -0.136 ± 0.015
GGGCGCCC | 0.0748 ± 0.0076
CGTCGGAG | -0.0302 ± 0.0062
CTAATGCA | 0.0895 ± 0.026

Sequence | PBM E-score of 8-mer
CACGTCTC | 0.151 ± 0.0079
ATAAACCG | -0.202 ± 0.034
GCCTGAAA | -0.0829 ± 0.0037
GCGCACCC | 0.126 ± 0.062
ACACACGG | -0.0763 ± 0.019
AACCGACC | 0.101 ± 0.057
GAATAACC | -0.203 ± 0.031
ATGCTGAG | -0.156 ± 0.081
CAACGCAG | 0.0396 ± 0.037
ACTGGTCT | -0.327 ± 0.025
CGCAGTTA | 0.045 ± 0.0081
AATAAGCC | -0.234 ± 0.074
CCGCCTGA | -0.318 ± 0.05
ATGAGCAT | -0.153 ± 0.016
CAGGTTTA | -0.00129 ± 0.013
AGCGATGA | 0.0218 ± 0.011
ATGAGAAA | -0.182 ± 0.17
TAAGACGA | -0.111 ± 0.062
CAGATATC | -0.0709 ± 0.075
ACGGTGCC | 0.158 ± 0.032
ACAAAGTC | 0.0973 ± 0.012
ACTAGACT | -0.0775 ± 0.062

Sequence | PBM E-score of 8-mer
AGTGTCAA | 0.447 ± 0.0063
ACCTAGGT | 0.294 ± 0.029
CCCGCACG | 0.0427 ± 0.056
CCGCTGAC | 0.079 ± 0.045
AGTGAAAA | 0.134 ± 0.11
GAATCACC | 0.0704 ± 0.032
GTATCGCA | 0.209 ± 0.0043
CGGGACCG | -0.137 ± 0.0073
ATATGTAA | -0.152 ± 0.0082
ATAATGGG | -0.149 ± 0.033
CAAGATAA | -0.307 ± 0.004
CGGACGAC | -0.294 ± 0.061
ACTCCGTA | -0.132 ± 0.018
AGACCAGC | -0.0256 ± 0.059
AGAGATCA | -0.0989 ± 0.0019
CTGTAATC | -0.0671 ± 0.092
ATCGAAAT | -0.0394 ± 0.029
ACGGAACT | -0.0989 ± 0.021
CAAGTTCG | 0.0993 ± 0.029
ATCGACTA | 0.0954 ± 0.04
CAAGATGA | -0.0147 ± 0.081
ACCCAAGG | -0.125 ± 0.053

Sequence | PBM E-score of 8-mer
TAACGGGA | 0.169 ± 0.017
TATCAGCA | 0.0271 ± 0.025
GCTCCGAC | 0.0555 ± 0.055
ATTCTGCA | -0.137 ± 0.064
ATCTGGGC | -0.0886 ± 0.12
ATGCGCCA | 0.017 ± 0.011
AGACGTTC | -0.0953 ± 0.046
ACCTAAAG | 0.121 ± 0.072
CCAAACCG | 0.0892 ± 0.027
GTCAAGAC | 0.135 ± 0.0076
GACCGCAC | -0.0153 ± 0.014
CTTATCGC | 0.16 ± 0.018
TGGCACCA | 0.377 ± 0.0055
ACGGTTCC | -0.119 ± 0.0017
ATTGTGGG | 0.0127 ± 0.025
GCAGTCCA | -0.00679 ± 0.0092
AGCGCGAT | 0.291 ± 0.0076
AAGGTCTG | -0.0553 ± 0.035
ATTTCGCA | 0.378 ± 0.0045
CCAATTCG | 0.0374 ± 0.038
AGTAAGCC | -0.135 ± 0.0042
